# Among all 410,000 compounds or so, about 6,400 (1.6%) were called active. Inconclusive means that the source gave no clear call. Such entries were picked first, then a sample of the others. The call rests on the fitted dose curve; in most records, active means well fitted inhibition curve with a large enough effect; inconclusive means small, poorly fitted or top-dose-only effect; inactive means no such curve, though single readings can be large or run the other way. Potencies of inconclusive entries are left out as doubtful fits.
# Target: Glucagon-like peptide 1 receptor (Homo sapiens) (UniProt P43220)
# Assay: qHTS of GLP-1 Receptor Inverse Agonists (Inhibition Mode); further: nearly all actives have a fitted effect of over 55% in size
# Settings: HEK293 GLP-1R CRE-luciferase, luminescence, 24 h, GLP-1R form is constitutively active; activity change, negative = inhibition: at 38.3 µM (top of the series) unless noted
# In short: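 Seeding at 200 cells/uL, 12 h culture, 24 hr compound treatment, then luciferase reagent and a luminescence read; cells are HEK293 stably expressing a constitutively active GLP-1R plus cAMP-responsive luciferase.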
# On the % scale 0 is the no-effect control and ±100 the full control effect; potency means the concentration at half of the fitted maximal effect; tags describe the fitted curve by direction and shape.
# UniProt P43220, sequence (P43220 whole entry, looked up): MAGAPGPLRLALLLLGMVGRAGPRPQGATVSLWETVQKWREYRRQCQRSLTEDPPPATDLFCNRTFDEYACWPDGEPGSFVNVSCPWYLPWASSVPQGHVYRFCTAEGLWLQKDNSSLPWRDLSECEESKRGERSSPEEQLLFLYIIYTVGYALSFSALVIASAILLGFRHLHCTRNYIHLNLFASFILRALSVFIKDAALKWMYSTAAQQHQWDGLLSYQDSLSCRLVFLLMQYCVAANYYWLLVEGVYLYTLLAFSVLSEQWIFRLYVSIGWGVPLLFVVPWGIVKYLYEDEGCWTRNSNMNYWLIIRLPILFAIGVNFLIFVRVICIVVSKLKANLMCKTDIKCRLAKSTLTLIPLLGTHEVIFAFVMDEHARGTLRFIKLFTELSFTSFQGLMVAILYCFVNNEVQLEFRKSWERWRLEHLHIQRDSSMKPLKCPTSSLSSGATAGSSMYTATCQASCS
SMILES,Potency,"activity change, negative = inhibition"
Cc1ccc2nc(-c3ccncc3)c(NC3CCCC3)n2c1,"inconclusive [inhibitor, partial curve, poor fit]",–
COc1ccc(OCC(=O)N/N=C2\CCCc3ccccc32)cc1,"inconclusive [inhibitor, single point]",–
Cc1cccc(CNc2ccc(C(CC(N)=O)NC(=O)c3ccccc3)cc2[N+](=O)[O-])c1 (configuration not stated),"inconclusive [inhibitor, single point]",–
O=C(NC12CC3CC(CC(C3)C1)C2)c1cccc(OC(F)F)c1,–,inconclusive: -74.3% [inhibitor]
CC1CCCC(C)N1/N=C/c1cc(Br)cc(Br)c1O (configuration not stated),–,inactive: 14%
CCCCC1CC2=C(C(=O)OC(C)(C)O2)C(c2ccc3ccccc3c2)O1 (configuration not stated),"inconclusive [inhibitor, single point]",–
O=C(COc1ccc2c(c1)C(=O)CC1(CCCCC1)O2)NCc1ccccc1,active: 11.2 µM,–
CC(C)(C)OC(=O)NN1CC(=O)N2Cc3[nH]c4ccccc4c3C[C@H]2C1=O,"inconclusive [inhibitor, single point]",–
COc1ccccc1CNC(=O)c1n[nH]c2ccccc12,"inconclusive [inhibitor, single point]",–
O=C(CN1C(=O)S/C(=C/c2cccn2-c2ccc(O)cc2)C1=O)N1CCCC1,"inconclusive [inhibitor, single point]",–
COc1cccc(NC(=O)CN(C)C(=O)CNC(=O)c2ccc(Oc3ccccc3)cc2)c1,"inconclusive [inhibitor, single point]",–
Cc1cc(C)cc(NC(c2nnc(-c3cccc(F)c3)o2)c2ccc(F)cc2Cl)c1 (configuration not stated),"inconclusive [inhibitor, partial curve, poor fit]",–
CC(C)C(OC(=O)c1cccs1)C(=O)NCCc1ccccc1 (configuration not stated),"inconclusive [inhibitor, partial curve, poor fit]",–
CSc1nc2c(C)c(C)c(C)c(C)c2[nH]1,"inconclusive [inhibitor, single point]",–
COc1ccc(-c2nc(-c3ccccc3)c(-c3cc([N+](=O)[O-])ccc3C)[nH]2)cc1OC,active: 5.62 µM,–
COc1ccc(Cc2nc3ccc(C(=O)NCCc4ccc(OC)c(OC)c4)cc3o2)cc1,"inconclusive [inhibitor, partial curve]",–
O=C(Nc1cccc(C(F)(F)F)c1)C1CCN(S(=O)(=O)c2ccc(N3CCCC3=O)cc2)CC1,"inconclusive [inhibitor, partial curve, poor fit]",–

# Reference: PubChem BioAssay AID624417 (National Center for Advancing Translational Sciences (NCATS), 2012)
